# Measured values: article PMC6212790
# The list shows a part of the results. At the low end of the ranking the order means little.
# Molecular target: T1, GST-Rok (full length) (UniProt O34857)
# T1 sequence: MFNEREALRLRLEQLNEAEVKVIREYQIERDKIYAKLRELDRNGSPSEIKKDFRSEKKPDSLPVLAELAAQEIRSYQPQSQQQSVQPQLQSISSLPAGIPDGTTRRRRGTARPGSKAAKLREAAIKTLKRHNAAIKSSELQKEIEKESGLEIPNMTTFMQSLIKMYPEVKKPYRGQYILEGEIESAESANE
# Test: protein binding microarray;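 further: rank score from −0.5 (least bound) to 0.5 (best bound)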
# Conditions: Rok is a gene silencer of Bacillus subtilis; high values mean tight binding; most listed sequences are background and not binding sites; double strand, one strand shown
row,Sequence,binding signal [E-score]
1,AGCGGAAC,-0.107
2,ATGGCCCA,0.0324
3,CGGATACA,0.103
4,GGGTTATA,0.0571
5,GGAGTCAA,-0.119
6,GCTCAAGA,-0.28
7,GAGTATAA,0.0291
8,CCGGTGCA,-0.334
9,AGTCACCC,-0.346
10,ACACACGT,-0.0125
11,ATTAACTA,0.398
12,GGGCGCAA,-0.371
13,CAATTGCG,0.247
14,CTGAGCGC,-0.107
15,CCTCCCCC,-0.416
16,AATTCCTA,0.109
17,AGCATCGG,-0.146
18,CCGTCGTA,0.0228
19,GAGACGAC,-0.291
20,CACTAGGA,-0.0636
21,GCACCAGC,-0.164
22,AGGCCGAG,-0.377
23,CATTAATA,0.171
24,ACAATGAC,0.00584
25,GCCGAAAC,-0.091

row,Sequence,binding signal [E-score]
1,TCGATACA,0.144
2,ATACCGAG,0.116
3,CGTGCCAC,-0.281
4,GAGAATCA,0.132
5,CCATTAGG,-0.175
6,AGTACTAT,0.388
7,ATCTTTAA,0.0286
8,CTTGATTA,0.0543
9,CAGTAAAG,0.00124
10,AAGAGCTC,-0.165
11,TCAAGAGA,-0.0469
12,AAATGTGG,0.0722
13,GACTTGGC,-0.138
14,AGAAGGGG,-0.307
15,ACGCACCT,-0.16
16,CAATACAC,0.125
17,AGTTATAA,0.285
18,CAGCTCGA,-0.226
19,AGCACCCG,-0.341
20,CGCGAACA,-0.0529
21,CCCCGAGG,-0.291
22,CTACTACC,0.303
23,AGTCGGTC,-0.215
24,CCGGATAA,0.0373
25,CTAAATGC,0.0847

row,Sequence,binding signal [E-score]
1,CATTACAG,0.129
2,CATGGAGA,0.0828
3,GCCTGTAA,0.0127
4,GCTACAAC,0.219
5,CGAGACTA,0.0881
6,AGTTTAGA,0.253
7,CGCCGTCC,-0.383
8,CTGAAACC,-0.0984
9,ACCGCTGC,-0.162
10,ACGCCGGA,-0.221
11,ATAGCTTA,0.132
12,ACCGGCAC,0.013
13,AACGTATT,0.212
14,GCACCCGC,-0.241
15,CCACATGG,-0.11
16,ATCGAGGA,-0.178
17,CGCCAAAG,-0.269
18,GGCAACAC,-0.309
19,TAGTAAAA,0.332
20,AAATTTAC,0.336
21,AGGATCTA,0.29
22,ATGGACCG,-0.102
23,GTTACACA,0.0782
24,AAAGCTTA,0.176
25,CGTTTCAG,-0.16

row,Sequence,binding signal [E-score]
1,AAAAGTTA,0.191
2,ATACTTAA,0.0668
3,ATCCGAGG,0.0827
4,AGGAATCG,0.0148
5,GATGAGCC,-0.344
6,TCACGAGA,-0.235
7,ACCGCATA,0.0945
8,GAGATTGA,0.0297
9,ACGGGCGC,-0.173
10,AAAACATA,0.315
11,ACCACAGA,0.0227
12,CATCCTCC,-0.36
13,GCGCCAGA,-0.314
14,ATTTGACC,-0.0614
15,CCCTATAA,0.23
16,ACGGTGAC,0.0687
17,CCGTATCG,-0.12
18,CCATGAGA,-0.0139
19,GAAAGGAA,-0.276
20,GCGAAACC,-0.191
21,CATCCATC,-0.0649
22,ATCTTTGC,0.0658
23,AGGAATAC,-0.0369
24,ACGAATAC,0.203
25,CGACTTAG,-0.115

row,Sequence,binding signal [E-score]
1,AAGGCAGC,-0.0862
2,TGTACACA,0.0194
3,GCAATGAC,-0.0169
4,ATGATGCC,-0.00544
5,AGCCACAT,-0.231
6,TCTAATAA,0.173
7,AAAGAACC,-0.0732
8,GACGGCGA,-0.287
9,CCACTACC,-0.0072
10,ATGGCAGA,-0.182
11,GGACCTAA,-0.115
12,GATAAATA,0.313
13,AAACCGGT,0.0305
14,GTATAGGA,0.1
15,ATACAGTG,0.172
16,AAATTCCG,0.0155
17,ATCGAGCC,0.122
18,ACTGGATG,-0.061
19,CCGGAGCA,-0.224
20,GCCTAACC,-0.173
21,GGCATTGA,0.0564
22,CTTCACGA,-0.3
23,CAGATGGC,-0.256
24,GCTCACGA,-0.136
25,GCTTGAGA,-0.121

row,Sequence,binding signal [E-score]
1,CTCACGAG,-0.0944
2,CATCGCCA,-0.241
3,CATGGTAC,0.13
4,AAACATTC,0.0507
5,ATCGTAGA,0.263
6,GACTAAAC,-0.0564
7,ACGGTAAT,0.292
8,TGGGGAAA,0.0076
9,ATCAAAAA,0.108
10,CCAGCATA,-0.0442
11,AAGACGTC,-0.0262
12,CCTGCTAC,-0.0435
13,AAACTAGC,0.362
14,GAACTCCC,-0.3
15,CGTCCTAC,0.0907
16,CCGCGTAA,0.106
17,GCCAATAC,-0.059
18,AGTGAGAG,-0.0325
19,CGTGGTTC,-0.124
20,ACAGCGAG,-0.386
21,GGTATCGA,0.0156
22,ATCAAGGG,-0.165
23,ACGGAGGG,-0.298
24,CGAACGCA,0.0571
25,CGGAATGA,0.0208

row,Sequence,binding signal [E-score]
1,TCCGCACA,-0.037
2,GGTTCCGA,-0.0743
3,GCACTTTA,-0.158
4,CGTGTTGA,-0.125
5,CGATGCGC,0.03
6,ATGTGGTG,0.225
7,ATAAAGGG,0.0558
8,ATTCCCTG,-0.0721
9,CTGTGATC,0.0619
10,CAGGCCTG,-0.351
11,GCCCCCTA,-0.329
12,CCTTCGCA,-0.0797
13,GGTCGAGA,-0.025
14,GCGCAGTA,0.0328
15,CAGATTTC,-0.079
16,ATCACCGC,-0.162
17,ACTTAGCG,0.178
18,AATAGACA,0.0377
19,TATTTACA,0.224
20,ACTTTCAT,0.187
21,AGTGCAAA,0.139
22,AATCAAAG,-0.0118
